In paper PMC4336329 (PLoS ONE, 2015):
Screen size: about 310,000 compounds; about 14,000 (4.5%) showed an effect of 50% or more. Effects have a minus sign here. The list shows a part of the results.

The molecules below were run against human ether-à-go-go-related gene (hERG) potassium channel (human, UniProt Q12809) (assay: primary screen, population patch clamp on CHO cells stably expressing hERG).
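Further: peak tail current of the secondary pulse compared with the same well before compound.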

human ether-à-go-go-related gene (hERG) potassium channel, sequence (Q12809 whole entry, looked up): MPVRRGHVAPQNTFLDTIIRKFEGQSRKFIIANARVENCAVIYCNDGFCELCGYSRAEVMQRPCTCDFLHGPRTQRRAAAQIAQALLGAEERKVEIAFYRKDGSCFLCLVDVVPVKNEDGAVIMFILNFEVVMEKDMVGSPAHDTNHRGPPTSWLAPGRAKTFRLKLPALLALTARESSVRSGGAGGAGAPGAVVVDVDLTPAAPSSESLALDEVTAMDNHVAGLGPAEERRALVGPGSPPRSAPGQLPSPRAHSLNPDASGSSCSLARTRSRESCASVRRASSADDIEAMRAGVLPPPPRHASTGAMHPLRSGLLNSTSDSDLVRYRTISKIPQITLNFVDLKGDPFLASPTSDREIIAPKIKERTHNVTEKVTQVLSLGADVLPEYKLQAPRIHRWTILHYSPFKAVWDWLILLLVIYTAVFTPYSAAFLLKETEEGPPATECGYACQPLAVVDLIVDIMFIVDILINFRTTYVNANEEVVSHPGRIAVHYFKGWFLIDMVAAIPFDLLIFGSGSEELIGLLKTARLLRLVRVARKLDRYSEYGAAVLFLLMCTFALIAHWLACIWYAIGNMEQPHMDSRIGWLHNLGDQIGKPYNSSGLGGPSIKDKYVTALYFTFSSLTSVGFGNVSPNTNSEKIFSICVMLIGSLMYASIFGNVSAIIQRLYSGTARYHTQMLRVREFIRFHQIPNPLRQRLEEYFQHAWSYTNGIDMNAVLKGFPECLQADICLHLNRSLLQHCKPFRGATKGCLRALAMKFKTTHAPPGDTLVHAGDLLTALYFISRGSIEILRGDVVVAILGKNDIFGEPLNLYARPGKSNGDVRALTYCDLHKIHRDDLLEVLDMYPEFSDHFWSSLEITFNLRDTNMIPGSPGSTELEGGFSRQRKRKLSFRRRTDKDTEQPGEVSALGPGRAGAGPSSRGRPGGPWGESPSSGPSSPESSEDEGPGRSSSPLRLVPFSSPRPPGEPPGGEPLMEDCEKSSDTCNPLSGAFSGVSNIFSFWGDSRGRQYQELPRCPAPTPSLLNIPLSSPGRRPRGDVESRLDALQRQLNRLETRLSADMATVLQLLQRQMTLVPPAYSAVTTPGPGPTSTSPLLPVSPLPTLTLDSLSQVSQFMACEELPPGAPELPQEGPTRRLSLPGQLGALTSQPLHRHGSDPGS

Going from `N/C(Cc1nc(-c2ccc(Cl)cc2)cs1)=N/O` to `Cc1ccc(CN2CCC(c3nc4ccc(Cl)cc4[nH]3)CC2)cc1`, the “hERG current change (%, negative = inhibition) at 10uM” value falls from 10% to -83%.

First: C(=N\N(c1ccccc1)c1ccccc1)/c1ccc2c(c1)OCO2
Second: O=C(Nc1ccc(N=Nc2ccccc2)cc1)c1cccc(Cl)c1
The “hERG current change (%, negative = inhibition) at 10uM” value of the first is higher: 4.28% for the first, -0.566% for the second.

Going from `CC(NC(=O)Nc1ccccc1)c1ccccc1` (centres unmarked) to `Cc1ccc(NC(=O)CNC(C)c2ccccc2)cc1.Cl` (centres unmarked), the “hERG current change (%, negative = inhibition) at 10uM” value rises from 3.06% to 9.68%.

Going from `COc1cccc(C2C(C#N)=C(N)Oc3c2oc(CO)cc3=O)c1` (centres unmarked) to `COc1ccc2nc3oc(C(=O)N4CC(C)CC(C)C4)cc3cc2c1` (centres unmarked), the “hERG current change (%, negative = inhibition) at 10uM” value falls from 1.6% to -9.5%.

Compared with `CC1CCN(CC(=O)Nc2ccc(Br)cc2[N+](=O)[O-])CC1`, `Cc1ccccc1OCCNc1cc(N2CCNCC2)ccc1[N+](=O)[O-]` is lower in “hERG current change (%, negative = inhibition) at 10uM” value: 19.6% for the first, -4.38% for the second.

First: CC(C)NC(=O)COC(=O)c1ccc(Cl)c(S(=O)(=O)N2CCCC2)c1
Second: CCOC(=O)c1ccc(NC(=O)N2CCCCCC2)cc1
The “hERG current change (%, negative = inhibition) at 10uM” value of the first is lower: -11% for the first, -5.72% for the second.

First: CN(Cc1nc2ccc(F)cc2[nH]1)Cc1nc(CC2CC2)no1
Second: CSc1nc2nc3c(cn2n1)C(=O)CC(c1ccccc1)C3 (centres unmarked)
The “hERG current change (%, negative = inhibition) at 10uM” value of the first is lower: -12.3% for the first, -5.67% for the second.

Going from `Cc1ncc([N+](=O)[O-])n1CCOC(=O)Nc1ccc([N+](=O)[O-])cc1` to `C/C(CC(=O)Nc1ccc2c(c1)OCCO2)=N\NC(=O)c1ccc([N+](=O)[O-])cc1Cl`, the “hERG current change (%, negative = inhibition) at 10uM” value rises from -5.42% to -5.37%.

First: O=C(c1ccco1)N1CCN(C(=O)c2cc(-c3ccc(F)cc3)no2)CC1
Second: COc1ccc(CCC(=O)N2CCN(C(=O)c3ccccc3)CC2)cc1
The “hERG current change (%, negative = inhibition) at 10uM” value of the first is lower: -65.1% for the first, 5.76% for the second.

Going from `O=C(Nc1c(C(=O)N2CCCCC2)cnn1-c1ccccc1)c1ccco1` to `O=C(NCc1nnc(SCC(=O)N2CCCC2)o1)c1ccco1`, the “hERG current change (%, negative = inhibition) at 10uM” value falls from 13.4% to -7.2%.

Compared with `CN(C)CCCNC(=S)NCC(c1ccc(Cl)cc1Cl)c1c[nH]c2ccccc12` (centres unmarked), `COc1ccc(CCNC(=S)NCc2ccc(Cl)c(Cl)c2)cc1OC` is higher in “hERG current change (%, negative = inhibition) at 10uM” value: -19.2% for the first, 14.5% for the second.

Compared with `CN(Cc1ccccc1)C(=O)CSc1nc2cc(C(=O)N3CCC(C(N)=O)CC3)ccc2c(=O)n1-c1ccccc1`, `COc1ccc(S(=O)(=O)N2CCC(C(=O)Nc3cccc(C(C)=O)c3)CC2)cc1` is lower in “hERG current change (%, negative = inhibition) at 10uM” value: -3.37% for the first, -27.9% for the second.

First: COC(=O)c1ccccc1NC(=S)N(Cc1ccc2c(c1)OCO2)Cc1cc2cc(OC)ccc2[nH]c1=O
Second: COc1cc(OC)cc(C(=O)Nc2ccccc2C(=O)NC2CC2)c1
The “hERG current change (%, negative = inhibition) at 10uM” value of the first is lower: 8.29% for the first, 9.06% for the second.

Going from `Cc1cc(=O)n2nc(N3CCCC(C(=O)NCc4ccccc4Br)C3)sc2n1` (centres unmarked) to `Cc1cc(C)c(C(N)=O)c(NC(=O)Nc2ccccc2)n1`, the “hERG current change (%, negative = inhibition) at 10uM” value rises from -2.93% to 5.72%.

Going from `Cc1ccc(C)c(N2CCN(C(=O)CSc3ccsc3[N+](=O)[O-])CC2)c1` to `COc1ccc(C)cc1NC(=S)N1CCN(S(C)(=O)=O)CC1`, the “hERG current change (%, negative = inhibition) at 10uM” value rises from -7.96% to 14.6%.

Going from `Cc1cccc(NC(=S)NCCN(C2CCCCC2)C2CCCC2)c1` to `COc1ccc(S(=O)(=O)Cc2ccc(C(=O)NC3CCCCCC3)o2)cc1`, the “hERG current change (%, negative = inhibition) at 10uM” value rises from -70.3% to -2.22%.

First: Cc1cc(C)cc(NC(=O)Nn2cnnc2)c1
Second: CCCc1nc2c(c(=O)c3ccccc3n2C)c(=O)n1-c1cc(C)cc(C)c1
The “hERG current change (%, negative = inhibition) at 10uM” value of the first is higher: 28.4% for the first, -12.2% for the second.

Going from `CCCN1CCN(S(=O)(=O)c2c(C)[nH]c(C)c2C(=O)N2CCCCC2)CC1` to `COc1ccc(/C=C/C(=O)NCCCN2CCCC2)cc1`, the “hERG current change (%, negative = inhibition) at 10uM” value falls from 1.38% to -44.5%.

Going from `CCOc1cc(C(=O)Nc2cccc(OCC(=O)N3CCOCC3)c2)cc(OCC)c1OCC` to `Cc1cccc(OCc2nnc(SCC(=O)Nc3ccc(N4CCOCC4)cc3)o2)c1`, the “hERG current change (%, negative = inhibition) at 10uM” value falls from 15.1% to 9.68%.

Compared with `CC(=O)NCc1ccc(S(=O)(=O)N/N=C/c2ccc(N(C)C)cc2)cc1`, `CC(=O)Oc1ccc(/C=N/NS(=O)(=O)c2ccccc2)cc1` is lower in “hERG current change (%, negative = inhibition) at 10uM” value: 4.06% for the first, -4.37% for the second.

First: CCn1c(SCC(=O)N/N=C(\C)c2ccncc2)nnc1-c1ccccc1
Second: CNC(=O)c1cc(S(=O)(=O)NCc2ccncc2)ccc1OC
The “hERG current change (%, negative = inhibition) at 10uM” value of the first is lower: -3.4% for the first, 4.36% for the second.

First: COc1ccc(-n2c(C)cc(/C=C3\SC(=O)NC3=O)c2C)cc1
Second: Cc1ccc(/C=C2\SC(=S)N(CCC(=O)Nc3cccnc3)C2=O)cc1
The “hERG current change (%, negative = inhibition) at 10uM” value of the first is lower: 11.7% for the first, 14% for the second.

First: CCOC(=O)c1c(NC(=O)COC(=O)c2cnccn2)sc(C(=O)NC)c1C
Second: CCCNC(=O)c1ccc2c(=O)n3c(-c4ccc(C)cc4)csc3nc2c1
The “hERG current change (%, negative = inhibition) at 10uM” value of the first is lower: -9.73% for the first, 5.26% for the second.

Compared with `COc1ccccc1NC(=S)NCc1ccc(S(N)(=O)=O)cc1`, `CSc1ccc(S(=O)(=O)NCCSc2ccccn2)cc1` is lower in “hERG current change (%, negative = inhibition) at 10uM” value: 2.57% for the first, -22.2% for the second.

First: CC1=NN(c2ccccc2)C(=O)/C1=C\C=C1/N(C)c2ccccc2C1(C)C
Second: CC(C)(C)c1ccc2c(c1)C(=O)c1ccccc1C2=O
The “hERG current change (%, negative = inhibition) at 10uM” value of the first is lower: -8.23% for the first, 7.92% for the second.

Compared with `CCCn1nnnc1-c1cccc(Cl)c1`, `CNc1nc(NCc2ccccc2)nc(N)c1[N+](=O)[O-]` is higher in “hERG current change (%, negative = inhibition) at 10uM” value: -12.4% for the first, 8.41% for the second.

First: C[N+](C)(CCCCCC[N+](C)(C)CCCN1C(=O)c2cccc3cccc(c23)C1=O)CCCN1C(=O)c2cccc3cccc(c23)C1=O.[Br-]
Second: C=C(C)Cn1c(C)cc(C)c(S(=O)(=O)c2ccc(C)cc2)c1=O
The “hERG current change (%, negative = inhibition) at 10uM” value of the first is higher: 15% for the first, 4.75% for the second.

Going from `CC(C)n1c(=O)[nH][nH]c1=S` to `CC(C)CN1CCN(Cc2cn(C)c3ccccc23)CC1CCO` (centres unmarked), the “hERG current change (%, negative = inhibition) at 10uM” value falls from 15% to 9.53%.
